Measurements as given in article PMC4336329 (PLoS ONE, 2015).
Out of some 310,000 compounds screened, about 14,000 (4.5%) showed an effect of 50% or more. The effect is printed as a negative number. The list shows a part of the results.

These compounds were tested against human ether-à-go-go-related gene (hERG) potassium channel (human, UniProt Q12809) (assay: primary screen, population patch clamp on CHO cells stably expressing hERG).
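Further: peak tail current of the secondary pulse compared with the same well before compound.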

Sequence of human ether-à-go-go-related gene (hERG) potassium channel (Q12809 whole entry, looked up): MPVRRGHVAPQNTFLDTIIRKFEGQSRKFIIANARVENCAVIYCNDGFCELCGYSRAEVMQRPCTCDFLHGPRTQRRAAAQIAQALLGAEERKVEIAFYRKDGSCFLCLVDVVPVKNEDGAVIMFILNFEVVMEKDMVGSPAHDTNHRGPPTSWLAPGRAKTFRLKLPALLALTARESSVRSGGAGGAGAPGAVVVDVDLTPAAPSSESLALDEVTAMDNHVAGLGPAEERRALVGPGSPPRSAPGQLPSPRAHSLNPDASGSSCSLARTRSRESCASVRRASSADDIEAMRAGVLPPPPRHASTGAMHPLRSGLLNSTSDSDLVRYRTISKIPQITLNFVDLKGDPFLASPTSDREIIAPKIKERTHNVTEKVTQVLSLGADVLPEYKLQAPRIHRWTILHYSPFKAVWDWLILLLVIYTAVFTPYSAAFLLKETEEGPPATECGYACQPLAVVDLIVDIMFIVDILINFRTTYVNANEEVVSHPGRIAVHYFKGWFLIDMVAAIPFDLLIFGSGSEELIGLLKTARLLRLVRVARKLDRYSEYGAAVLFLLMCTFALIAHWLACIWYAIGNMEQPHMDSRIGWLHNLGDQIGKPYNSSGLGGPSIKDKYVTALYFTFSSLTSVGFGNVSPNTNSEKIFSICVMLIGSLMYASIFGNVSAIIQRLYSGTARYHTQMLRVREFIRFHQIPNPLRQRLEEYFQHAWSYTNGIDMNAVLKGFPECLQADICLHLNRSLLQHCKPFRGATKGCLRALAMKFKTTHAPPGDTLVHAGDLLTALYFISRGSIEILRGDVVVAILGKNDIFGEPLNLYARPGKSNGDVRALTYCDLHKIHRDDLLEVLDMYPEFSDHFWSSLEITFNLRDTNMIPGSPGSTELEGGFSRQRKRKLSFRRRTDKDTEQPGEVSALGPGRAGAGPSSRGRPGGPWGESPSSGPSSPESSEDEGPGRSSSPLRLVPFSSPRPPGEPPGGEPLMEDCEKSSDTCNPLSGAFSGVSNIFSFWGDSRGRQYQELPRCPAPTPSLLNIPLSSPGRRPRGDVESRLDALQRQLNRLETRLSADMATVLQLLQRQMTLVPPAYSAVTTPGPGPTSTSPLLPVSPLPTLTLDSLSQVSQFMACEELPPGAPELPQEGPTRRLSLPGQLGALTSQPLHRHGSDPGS

Compound	hERG current change (%, negative = inhibition) at 10uM
Cl.O=C(/C=C/c1ccccc1)N1CCN(CC(O)COc2ccccc2)CC1 (stereo not drawn)	-69.7%
COc1ccc2cc(C(=O)C3CCCN(C(=O)c4ccnn4C)C3)ccc2c1 (stereo not drawn)	-41.1%
CCNC(=O)C1=C(O)c2sccc2N(C)S1(=O)=O	24.6%
O=S1(=O)CC=C(CSc2nc3ccccc3[nH]2)C1	9.13%
COC(=O)NCc1ccc(Cl)c(Cl)c1	5.73%
Cc1n[nH]c(C)c1S(=O)(=O)N(C)Cc1ccco1	2.13%
O=C(Cc1ccccc1[N+](=O)[O-])NCCSCc1c(F)cccc1Cl	20.6%
CCOCCn1c(SCC)nc2c1c(=O)[nH]c(=O)n2C	-1.3%
Cc1nnc(C)n1/N=C/c1cccs1	13.4%
CNc1cc(C(F)(F)F)nc(-c2ccccn2)n1	20.5%
CC(=O)c1ccc(N2CCN(S(=O)(=O)c3cn(C)cn3)CC2)cc1	19.6%
O=[N+]([O-])c1ccc(/C=N/Nc2nc(N3CCCC3)nc(N3CCCC3)n2)o1	1.41%
CCN(CC)C(=O)Oc1ccc(NC(=O)N2CCOCC2)cc1	4.02%
COCc1cc(C)nc2sc(C(=O)Nc3nccs3)c(N)c12	-6%
COc1ccc(-c2c(C)oc3c(CN4CCCCC4C)c(O)ccc3c2=O)cc1 (stereo not drawn)	-16.6%
CC(C)S(=O)(=O)c1csc(NC(=O)Nc2ccc(Cl)cc2)c1Cl	-41.5%
O=C(NC(=S)N1CCCCC1)C12CC3CC(CC(C3)C1)C2	20.7%
CCOC(=O)N1CCC(NC(=O)CCCN2C(=O)CSc3ncccc32)CC1	9.25%
O=C(Nc1cccc(C(=O)O)c1)Nc1ccc2c(c1)OCO2	16.4%
Cc1ccc(N2C(=O)C(Cl)=C(Nc3c(C)n(C)n(-c4ccccc4)c3=O)C2=O)cc1	-17.9%
Clc1ccc(SCCCCN2CCNCC2)cc1.O=C(O)C(=O)O	-48.7%
CCOC(=O)Nc1ccc2c(c1)N(C(=O)CN1CCN(CCO)CC1)c1ccccc1CC2.Cl	-1.11%
O=C(/C=C/c1ccccc1)Nc1ncn[nH]1	14.5%

Compound	hERG current change (%, negative = inhibition) at 10uM
O=C1N(c2ccccc2)CCN1c1ccccc1	31.4%
O=C(Cc1c(F)cccc1Cl)N/N=C/c1cccs1	3.71%
COc1ccccc1N1C(=O)S/C(=C\c2cc(C)n(C)c2C)C1=O	10.9%
C/C(Cl)=C\Cn1c(NCCCn2ccnc2)nc2c1c(=O)n(C)c(=O)n2C	-27.6%
COc1ccc(NC(=S)/N=C(\N)Nc2nc(C)c3ccccc3n2)cc1	15.6%
CCOC(=O)C1CCN(c2c(NCCCN3CCN(Cc4ccccc4)CC3)c(=O)c2=O)CC1	3.6%
CCOc1c2ccc(C(=O)NCc3ccc(C)cc3)cc2nn1CC	0.876%
Cc1nc(-c2ccc(S(=O)(=O)NCC3CCN(C(=O)OC(C)(C)C)CC3)s2)cs1	-3.83%
CCn1c(CCC(=O)O)nc2cc(S(=O)(=O)N(C)C)ccc21	29.2%
CCOc1ccc(S(=O)(=O)N2CCCC(C(=O)N3CCOCC3)C2)cc1 (stereo not drawn)	-2.04%
CC(=O)Nc1ccc(C2CN(C)CC2C(=O)c2ccc(Cl)cc2)cc1 (stereo not drawn)	-31.8%
CCOC(=O)c1sc2nc(C)cc(-c3ccccc3)c2c1N	-8.6%
Cc1nn(Cc2ccccc2)c(Cl)c1C(=O)Nc1ccc(OC(F)(F)F)cc1	28.4%
COc1ccccc1/C=N/n1cnnc1	5.92%
CCCN1C(=O)COc2ccc(-c3n[nH]c(=O)c4ccccc34)cc21	10.4%
Nc1nnc(SCC(=O)Nc2cc(S(=O)(=O)N3CCOCC3)ccc2Cl)s1	13.4%
COC(=O)[C@@H]1C[C@H]1[C@@H](NS(=O)(=O)c1ccccc1)c1ccccc1	2.43%
Cc1cccc(N2C(=O)CN=C2Nc2nc(C)cc(C)n2)c1	-14.4%
COc1ccc(-n2c(CNC(=O)c3cc(OC)c(OC)c(OC)c3)n[nH]c2=S)cc1	9.84%
COCC(C)n1c(SCC(=O)N2CCc3ccccc3C2)nc2ccccc2c1=O (stereo not drawn)	-35.7%
CNc1ccccc1C(=O)OCC(=O)c1ccccc1	-2.57%
CN(CC(=O)Nc1cccc(F)c1)C(=O)c1cccnc1Sc1ccccc1Cl	-17.4%
